Measurements as given in the supplement of paper PMC8728848.
This is one part of the list.

Experiments:
Assay in all cases: glycan array binding signal (z-score within array); higher = stronger binding
Conditions in all cases: glycan notation: IUPAC condensed, linker removed
[1] = molecular target: Neu5Ac(a2-6)Gal(b1-4)GlcNAc(b1-2)Man(a1-3)[GlcNAc(b1-2)Man(b1-4)GlcNAc(b1-2)Man(a1-6)]Man(b1-4)GlcNAc(b1-4)GlcNAc
Method in brief: (§1)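 Glycan array data were curated from 3228 arrays in the Consortium for Functional Glycomics database and kept only where the protein sequence was available. Glycan names were converted to IUPAC-condensed notation, and columns mapping to the same glycan were averaged. The binding signal is a within-array Z-score, averaged across arrays of the same protein sequence at different concentrations or buffers and across linkers. Negative Z-scores can be read as non-binding.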

[2] = molecular target: Neu5Ac(a2-6)Gal(b1-4)GlcNAc(b1-2)Man(a1-3)[Neu5Ac(a2-6)Gal(b1-4)GlcNAc(b1-2)Man(a1-6)]Man(b1-4)GlcNAc(b1-4)GlcNAc
Method in brief: as §1

[3] = molecular target: Neu5Ac(a2-6)Gal(b1-4)GlcNAc(b1-2)Man(a1-6)[Gal(b1-4)GlcNAc(b1-2)Man(a1-3)]Man(b1-4)GlcNAc(b1-4)GlcNAc
Method in brief: as §1

[4] = molecular target: Neu5Ac(a2-6)Gal(b1-4)GlcNAc(b1-2)Man(a1-6)[GlcNAc(b1-2)Man(a1-3)]Man(b1-4)GlcNAc(b1-4)GlcNAc
Method in brief: as §1

[5] = molecular target: Neu5Ac(a2-6)Gal(b1-4)GlcNAc(b1-3)Gal(b1-4)GlcNAc
Method in brief: as §1

[6] = molecular target: Neu5Ac(a2-6)Gal(b1-4)GlcNAc(b1-3)Gal(b1-4)[Fuc(a1-3)]GlcNAc(b1-3)Gal(b1-4)[Fuc(a1-3)]GlcNAc
Method in brief: as §1

[7] = molecular target: Neu5Ac(a2-6)Gal(b1-4)GlcNAc6S
Method in brief: as §1

[8] = molecular target: Neu5Ac(a2-6)GalNAc
Method in brief: as §1

[9] = molecular target: Neu5Ac(a2-6)GalNAc(b1-4)GlcNAc
Method in brief: as §1

[10] = molecular target: Neu5Ac(a2-8)Neu5Ac
Method in brief: as §1

[11] = molecular target: Neu5Ac(a2-8)Neu5Ac(a2-3)Gal(b1-4)Glc
Method in brief: as §1

[12] = molecular target: Neu5Ac(a2-8)Neu5Ac(a2-3)[GalNAc(b1-4)]Gal(b1-4)Glc
Method in brief: as §1

[13] = molecular target: Neu5Ac(a2-8)Neu5Ac(a2-8)Neu5Ac
Method in brief: as §1

[14] = molecular target: Neu5Ac(a2-8)Neu5Ac(a2-8)Neu5Ac(a2-3)Gal(b1-4)Glc
Method in brief: as §1

[15] = molecular target: Neu5Ac(a2-8)Neu5Ac(a2-8)Neu5Ac(a2-3)[GalNAc(b1-4)]Gal(b1-4)Glc
Method in brief: as §1

[16] = molecular target: Neu5Ac(a2-8)Neu5Ac(a2-8)Neu5Ac(a2-8)Neu5Ac(a2-3)[GalNAc(b1-4)]Gal(b1-4)Glc
Method in brief: as §1

[17] = molecular target: Neu5Ac(b1-6)GalNAc
Method in brief: as §1

[18] = molecular target: Neu5Ac(b2-6)Gal(b1-4)GlcNAc
Method in brief: as §1

[19] = molecular target: Neu5Ac(b2-6)GalNAc
Method in brief: as §1

[20] = molecular target: Neu5Ac9Ac(a2-6)Gal(b1-4)GlcNAc
Method in brief: as §1

[21] = molecular target: Neu5Gc(a2-3)Gal(b1-3)GlcNAc
Method in brief: as §1

[22] = molecular target: Neu5Gc(a2-3)Gal(b1-3)[Fuc(a1-4)]GlcNAc
Method in brief: as §1

[23] = molecular target: Neu5Gc(a2-3)Gal(b1-4)Glc
Method in brief: as §1

[24] = molecular target: Neu5Gc(a2-3)Gal(b1-4)GlcNAc
Method in brief: as §1

[25] = molecular target: Neu5Gc(a2-3)Gal(b1-4)[Fuc(a1-3)]GlcNAc
Method in brief: as §1

[26] = molecular target: Neu5Gc(a2-3)Gal(b1-4)[Fuc(a1-4)]GlcNAc
Method in brief: as §1

[27] = molecular target: Neu5Gc(a2-6)Gal(b1-4)GlcNAc
Method in brief: as §1

[28] = molecular target: Neu5Gc(a2-6)GalNAc
Method in brief: as §1

[29] = molecular target: Neu5Gc(b2-6)Gal(b1-4)GlcNAc
Method in brief: as §1

B1: NcCVNHO (Neurospora crassa), Q7S6U4 (protein)
chain: MSFHVTAEDARIEVRDNRTILFARLRREDGEWNDASYELDQIIGNNDGHFQWGGQNFTETAEDIRFHPKEGAAEQPILRARLRDCNGEFHDRDVNLTEIVENVNGEFQAKF
B1 was tested, and the “glycan array binding signal (z-score)” value [1] was -0.154, the “glycan array binding signal (z-score)” value [2] was -0.16 and the “glycan array binding signal (z-score)” value [3] was -0.156. For the same binder, the “glycan array binding signal (z-score)” value [4] was -0.166, the “glycan array binding signal (z-score)” value [5] was -0.232 and the “glycan array binding signal (z-score)” value [6] was -0.171. For the same binder, the “glycan array binding signal (z-score)” value [7] was -0.131, the “glycan array binding signal (z-score)” value [8] was -0.229 and the “glycan array binding signal (z-score)” value [9] was -0.233. The “glycan array binding signal (z-score)” value [10] was -0.207, the “glycan array binding signal (z-score)” value [11] was -0.192 and the “glycan array binding signal (z-score)” value [12] was -0.222. The “glycan array binding signal (z-score)” value [13] was -0.242, the “glycan array binding signal (z-score)” value [14] was -0.241 and the “glycan array binding signal (z-score)” value [15] was -0.24. For the same binder, the “glycan array binding signal (z-score)” value [16] was -0.228, the “glycan array binding signal (z-score)” value [17] was -0.301 and the “glycan array binding signal (z-score)” value [18] was -0.253. The “glycan array binding signal (z-score)” value [19] was -0.194, the “glycan array binding signal (z-score)” value [20] was -0.232 and the “glycan array binding signal (z-score)” value [21] was -0.241. The “glycan array binding signal (z-score)” value [22] was -0.234, the “glycan array binding signal (z-score)” value [23] was -0.22 and the “glycan array binding signal (z-score)” value [24] was -0.235. The “glycan array binding signal (z-score)” value [25] was -0.26, the “glycan array binding signal (z-score)” value [26] was -0.153 and the “glycan array binding signal (z-score)” value [27] was -0.243. For the same binder, the “glycan array binding signal (z-score)” value [28] was -0.19 and the “glycan array binding signal (z-score)” value [29] was -0.169.
